Measured values as given in PubChem BioAssay AID493208 (National Center for Advancing Translational Sciences (NCATS), 2011).
Screen size: about 44,000 compounds; about 340 (0.77%) were called active. Another 5% or so got no clear call; they are omitted. Calls follow the shape of the dose curve; as a rule, active = well fitted inhibition curve with a large enough effect; inconclusive = small, poorly fitted or top-dose-only effect; inactive = flat fitted curve, though single readings scatter. The list shows a part of the results.

Experiment: Acumen qHTS Assay for Inhibitors of the mTORC1 Signaling Pathway in MEF (Tsc2-/-, p53-/-) Cells: Sytravon;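 also: plate controls were DMSO for no effect and rapamycin for full effect; nearly all actives have a fitted effect of over 50% in size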
Conditions: phospho-rpS6 immunofluorescence/PI, 24 h; series mostly up to 38.3 µM; activity change, negative = inhibition: at the top concentration
In short: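 Tsc2-/-, p53-/- mouse embryonic fibroblasts (empty-vector line) exposed to compound 24 hrs at 37 C, fixed, immunostained for phospho-rpS6 and counterstained with propidium iodide. Acumen laser scanning gives % positive cells from Alexa 488/PI ratio, thresholded using 7.5 nM rapamycin; PI count gives viability.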

Row | Structure (SMILES) | activity change, negative = inhibition
1 | Cc1c(Cl)cccc1NC(=O)CSc1ncc(S(=O)(=O)c2ccc(C(C)C)cc2)c(=O)[nH]1 | inactive: -17.9%
2 | COc1cc(Cl)c(C)cc1NC(=O)c1ccc(CN2C(=O)CCn3nc(C)cc32)cc1 | inactive: -6.46%
3 | COC(=O)c1ccccc1NC(=O)C1(c2cccs2)CCOCC1 | inactive: -1.31%
4 | CCCCOC(=O)c1ccc(NC(=O)Cc2coc3c(C)c(C)ccc23)cc1 | inactive: -12%
5 | Cc1ccc(OCC(=O)N(Cc2ccco2)c2ccccn2)cc1 | inactive: 1.27%
6 | CCNC(=O)C1CCCN(c2nnc(C)c3c(C)n(-c4ccc(C)cc4)nc23)C1 (centres undefined) | inactive: -3.36%
7 | CCOC(=O)c1[nH]c(C)c(CCC(=O)NCc2cccc(C)c2)c1C | inactive: 0%
8 | CCOC(=O)c1c(C)[nH]c(C)c1S(=O)(=O)N1CCCC(C(=O)Nc2ccc(C)c(N(C)C)c2)C1 (centres undefined) | inactive: 4.12%
9 | CCC(=O)N1CCc2cc(CNC(=O)Nc3cc(C)ccc3C)ccc21 | inactive: -0.892%
10 | Oc1c(C(c2ccccc2Cl)N2CCOCC2)sc2nc(-c3ccco3)nn12 (centres undefined) | inactive: -9.32%
11 | Cc1cccc(CNC(=O)CN2C(=O)C3CCCCN3c3ccc(C(=O)N4CCCC4)cc32)c1 (centres undefined) | inactive: 1.82%
12 | COc1ccc(CCNS(=O)(=O)c2ccc(F)c(C(=O)Nc3ccc(Cl)cc3)c2)cc1OC | inactive: -22.4%
13 | Cc1ccc(-c2nnc(Nc3ccc(Cl)c(Cl)c3)c3ccccc23)cc1S(=O)(=O)N(C)C | inactive: 0.544%
14 | CC(=O)c1cccc(NC(=O)Cn2c(=O)oc3cc(S(=O)(=O)NC4CCCC4)ccc32)c1 | inactive: -0.707%
15 | CC(=O)c1ccc(Nc2nc3ccccc3nc2-n2nc(C)cc2C)cc1 | inactive: -2.13%
16 | CC(=O)N1CCN(c2nc3c(C)ccc(Cl)c3s2)CC1 | inactive: -3.35%
17 | COc1cccc(NC(=O)CSc2nccn2Cc2ccc3c(c2)OCO3)c1 | inactive: 9.86%
18 | Cc1nc(-n2nc(C)c(Cc3ccc(Cl)cc3)c2C)sc1C(=O)N1CCCCC1C (centres undefined) | inactive: -6.01%
19 | Cc1ccc(C)c(Cn2c3ccccc3c3cnn(CC(=O)NCC(C)c4ccccc4)c(=O)c32)c1 (centres undefined) | inactive: -7.03%
20 | O=C(CSCc1ccccc1Cl)NCc1ccc(Cl)c(Cl)c1 | inactive: -5.7%
21 | CCOc1ccccc1Nc1nc(-c2ccc(C)cc2)c(CC(=O)O)s1 | inactive: -16%
22 | O=c1[nH]c2ccc(NCc3ccc(-c4ccc(Cl)cc4)o3)cc2[nH]1 | inactive: -1.35%
23 | COc1ccc(CN(C(=O)Nc2cccc(OC)c2)C2CCN(C(C)=O)CC2)cc1 | inactive: -0.0914%
24 | Cc1ccc(NC(=O)CN2C(=O)CC(c3ccc(F)cc3)=Nc3ccccc32)cc1F | inactive: -3.12%

Row | Structure (SMILES) | activity change, negative = inhibition
25 | COc1ccc(OC)c(NC(=O)C(C)n2nc(C)c3c(C)n(-c4ccccc4)nc3c2=O)c1 (centres undefined) | inactive: 0%
26 | COc1ccc(C2c3c(oc4ccc(Cl)cc4c3=O)C(=O)N2CCCN(C)C)cc1OC (centres undefined) | inactive: -0.182%
27 | COc1cccc(CNC(=O)CN2C(=O)N(c3c(C)cccc3C)S(=O)(=O)c3ccccc32)c1OC | inactive: 4.68%
28 | COc1ccc2c(c1)CCc1c(C(=O)Nc3c(C)nn(Cc4ccc(Cl)cc4)c3C)noc1-2 | inactive: -1.65%
29 | COc1ccc(/C=C\c2onc(C)c2S(=O)(=O)N2CCC(C(=O)Nc3cccc(C)c3C)CC2)cc1 | inactive: 3.23%
30 | CCOc1ccc(NC(=O)Cn2nnc(C(=O)NCc3cccs3)c2N)cc1 | inactive: -2.2%
31 | Cc1cccc(C)c1NC(=O)CCS(=O)(=O)c1ccc2c(c1)CC(C)N2C(=O)C1CC1 (centres undefined) | inactive: -7.02%
32 | Cc1ccc(-c2nc3ccccc3s2)cc1NC(=O)COc1ccccc1 | inactive: -4.82%
33 | CCOc1ccc(/C=C/c2nc(C#N)c(N3CCCCC3)o2)cc1 | inactive: -4.61%
34 | CCOC(=O)c1cccc(NC(=O)CCc2c(C)nn(-c3ccc(N4CCCC4)nn3)c2C)c1 | inactive: -6.17%
35 | Cc1ccc(OCC(=O)NCC2(N3CCOCC3)CCCCC2)cc1C | inactive: -9.46%
36 | CCCCN(CCCC)CCNC(=O)c1cn(CC)c2ccc(S(=O)(=O)N3CCc4ccccc4C3)cc2c1=O | inactive: -9.04%
37 | CCCN(CCC)CCNC(=O)CN1C(=O)COc2ccc(S(=O)(=O)N3CCC(C)CC3)cc21 | inactive: 11.5%
38 | CCOC(=O)Cn1nc(-c2ccccc2)c2cnc3ccc(OCC)cc3c21 | inactive: -3.41%
39 | Cc1oc(-c2cccc(Cl)c2)nc1CN1CCC(C(=O)NCCCN2CCN(c3ccccc3F)CC2)CC1 | inactive: -17%
40 | CCOC(=O)CSc1nc2c([nH]c3ccccc32)c(=O)n1-c1ccc(OC)cc1 | inactive: 2.48%
41 | O=C(CN(CCc1ccccc1)S(=O)(=O)c1ccc(Br)cc1)NCc1ccc(Cl)cc1 | inactive: 3.49%
42 | CCC1CN(C(=O)C2CCN(S(=O)(=O)c3c(C)noc3/C=C/c3ccccc3F)CC2)c2cc(Cl)ccc2O1 (centres undefined) | inactive: 5.82%
43 | COc1ccc(N(Cc2cccs2)C(=O)c2ccc(Br)o2)cc1 | inactive: -15.3%
44 | CCc1ccc(NC(=O)CSC2=Nc3ccccc3C3=NC(CC(=O)NC4CCCCC4)C(=O)N23)cc1 (centres undefined) | inactive: -0.216%
45 | COc1ccc(NC(=O)C2CCCN(S(=O)(=O)c3ccc4c(c3)CCCC(=O)N4)C2)cc1OC (centres undefined) | inactive: -1.55%
46 | Cc1ccc2c(=O)cc(C(=O)Nc3ccc(S(=O)(=O)Nc4nc(C)cc(C)n4)cc3)oc2c1 | inactive: 0%
47 | O=C(C1CCN(c2ncnc3c2nc2n3CCCCC2)CC1)N1CCN(c2ccc(F)cc2)CC1 | inactive: -0.447%
48 | CCOc1cc(C2C(C(=O)Nc3ccc(OC)cc3)=C(C)Nc3nc(SC)nn32)ccc1O (centres undefined) | inactive: 1.6%

Row | Structure (SMILES) | activity change, negative = inhibition
49 | CCCC(=O)N1CC(=O)Nc2ccc(Cl)cc2C1c1ccccc1 (centres undefined) | inactive: -1.34%
50 | CCC(Sc1ncnc2sc3c(c12)CCCC3)C(=O)OC(C)C (centres undefined) | inactive: -24.1%
51 | CCc1ccc(NC(=O)Cn2c(=O)n(Cc3nc(-c4ccccc4)no3)c(=O)c3cc4c(cc32)OCO4)cc1 | inactive: -10.5%
52 | COc1ccc(S(=O)(=O)N2CCC(c3ccncc3)CC2)cc1OC | inactive: -0.26%
53 | O=C(c1ccco1)n1nc(-c2ccc(Cl)cc2)nc1NCc1ccccc1 | inactive: -28.4%
54 | Cc1ccc(N2C(=O)NC(NS(=O)(=O)c3ccc(Cl)cc3)(C(F)(F)F)C2=O)cc1C (centres undefined) | inactive: -2.47%
55 | COc1ccc(S(=O)(=O)NCC(c2ccc(N(C)C)cc2)N2CCc3ccccc32)cc1 (centres undefined) | inactive: 0%
56 | Cc1cccc(C(=O)Nc2ccc(C(=O)OCc3cc(=O)n4nc(C5CC5)sc4n3)cc2)c1 | inactive: 9.09%
57 | COc1ccccc1N1CCN(C(=O)CCc2nnc3n(C)c(=O)c4sccc4n23)CC1 | inactive: 8.86%
58 | COCCNC(=O)CSc1cn(CC(=O)N2CCCCCC2)c2ccccc12 | inactive: -6.22%
59 | Cc1ccc(NC(=O)C2CCCN2S(=O)(=O)c2ccc3nc(-c4ccccc4)[nH]c3c2)cc1F (centres undefined) | inactive: -4.36%
60 | CCOc1ccc(OCC)c(NC(=O)C2CCN(S(=O)(=O)c3cn(C)cn3)CC2)c1 | inactive: 1.38%
61 | CSc1ccc(CCNC(=O)Cn2ncc3c(=O)oc4ccccc4c32)cc1 | inactive: -10.6%
62 | Cc1ccn2c(Nc3ccc(F)cc3)c(-c3ccccn3)nc2c1 | inactive: 0.0896%
63 | O=C(Cn1nc(-c2ccccc2)nc(Cc2ccccc2)c1=O)Nc1ccccc1 | inactive: -5.92%
64 | CCCCC(=O)OC1=C(C(C)=O)N(Cc2ccccc2)S(=O)(=O)c2ccccc21 | inactive: 1.11%
65 | O=C(NCCc1nc2ccccc2n1Cc1ccccc1)c1ccco1 | inactive: -2.74%
66 | Cc1ccc(NS(=O)(=O)c2cnc(N)nc2)c(C)c1 | inactive: 0.209%
67 | CCN(CC)CCNC(=O)C1CCN(c2cc(C)nc3c(-c4ccc(Cl)cc4)c(C)nn23)CC1 | inactive: -4.79%
68 | Cc1nc(-n2nc(C)c(Cc3ccc4c(c3)OCO4)c2C)sc1C(=O)Nc1cccc(Cl)c1 | inactive: -16.8%
69 | CCc1nn(CC(=O)Nc2cc(C)cc(C)c2)c(=O)c2cc3sccc3n12 | inactive: -6.66%
70 | Cc1ccc(CN2CCCn3nc(C(=O)NCc4ccc(OC(C)C)cc4)cc3C2=O)cc1 | inactive: 15.6%
71 | CCOc1ccccc1NC(=O)N1CCN(C)c2ncccc21 | inactive: -17%
72 | Cc1ccc(NC(=O)CSc2n[nH]c(-c3ccc(F)cc3)n2)cc1F | inactive: 2.03%

Row | Structure (SMILES) | activity change, negative = inhibition
73 | CSc1cccc(NC(=O)CC(c2cccs2)N2Cc3ccccc3C2=O)c1 (centres undefined) | inactive: -9.02%
74 | COc1cc(-c2noc(CN3CCN(c4cccc(Cl)c4)CC3)n2)cc(OC)c1OC | inactive: -0.683%
75 | CSc1ccc(CCNC(=O)CCc2c(C)nc3c(c(C)nn3-c3ccc(C)c(C)c3)c2C)cc1 | inactive: 0.24%
76 | CCOC(=O)c1cccc(NC(=O)c2ccc3nc(C(C)C)oc3c2)c1 | inactive: -2.33%
77 | O=C(Nc1cccc(Cl)c1Cl)c1cc2nc(-c3ccc(Cl)cc3)cc(C(F)(F)F)n2n1 | inactive: -7.56%
78 | CCC(C(=O)Nc1nnc2n1CCS2)c1ccccc1 (centres undefined) | inactive: -4.95%
79 | Cc1ccc(CN2C(=O)CN(C3CCC(C)CC3)C(=O)C2c2ccc(F)cc2)cc1 (centres undefined) | inactive: -15.6%
80 | COc1ccc(Cn2c(=O)n(-c3ccccc3C)c(=O)c3c4c(sc32)CN(C(C)=O)CC4)cc1 | inactive: -11.7%
81 | CCCN(CCC)CCNC(=O)c1cc2c(-c3ccc(Cl)cc3)nn(C)c2s1 | inactive: -12.9%
82 | COc1ccc(NC(=O)N2CCc3c(sc4c3CCCC4)C2c2ccccc2OC)cc1 (centres undefined) | inactive: -17%
83 | CC(C)CC(=O)Nc1ccc2nc(SCC(=O)N3CCCC3)sc2c1 | inactive: -4.62%
84 | CCOC(=O)c1c(C)sc(-c2c(-c3cc(C)ccc3C)[nH]c3c2c(=O)n(C)c(=O)n3C)c1O | inactive: 0.168%
85 | Cc1ccc(NC(=O)CCn2nc(C)c(S(=O)(=O)N3CCCCC3)c2C)cc1Cl | inactive: -11.3%
86 | CCOc1ccc(N(CC(=O)Nc2cc(C)ccc2C)S(=O)(=O)c2c(C)[nH]c(=O)[nH]c2=O)cc1 | inactive: -6.74%
87 | CCN(c1ccc(C)cc1)S(=O)(=O)c1nnc(NC(=O)C2CCCCC2)s1 | inactive: -1.93%
88 | CCCNC(=O)CSc1nc2ccccc2nc1Cc1ccc(Cl)cc1 | inactive: -0.178%
89 | Cc1ccc(C)c(CN2C(=O)c3ccccc3S(=O)(=O)c3ccc(C(=O)N4CCc5ccccc54)cc32)c1 | inactive: 0.711%
90 | Cc1ccc(OCC(=O)NCC(c2ccc(Cl)cc2)N2CCCCC2)cc1 (centres undefined) | inactive: -7.82%
91 | COc1ccc(-n2c(C)c(C(C)=O)c3cc(OC(=O)c4ccc(C)cc4)ccc32)cc1 | inactive: 20.8%
92 | CCOC(=O)c1ccc(OCC2c3cc(OC)c(OC)cc3CCN2C(=O)c2ccc(S(=O)(=O)N3CCCC3)cc2)cc1 (centres undefined) | inactive: 3.61%
93 | CCn1c(CNC(=O)c2ccc(OC)cc2)nnc1SCC(=O)Nc1ccccc1 | inactive: -14.7%
94 | COC(=O)c1ccc(NC(=O)CCc2c(C)nc3c(-c4ccccc4)c(C)nn3c2C)cc1 | inactive: -0.479%
